# Test results taken from the supplement of paper PMC8728848.
# Some of the results follow.
# Tests used:
# Experiment in all cases: glycan array binding signal (z-score within array); higher = stronger binding
# Settings in all cases: glycan notation: IUPAC condensed, linker removed
# [1] = molecular target: Neu5Ac(a2-6)Gal(b1-4)GlcNAc(b1-3)Gal(b1-4)GlcNAc(b1-3)GalNAc
# Outline: (§1)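 The binding signal is a Z-score computed within each array and averaged over linkers. Arrays of the same protein sequence at different concentrations or buffers were also averaged together. Data originate from 3228 arrays in the Consortium for Functional Glycomics database, kept only where the protein sequence was available.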
# [2] = molecular target: Neu5Ac(a2-6)Gal(b1-4)GlcNAc(b1-3)Gal(b1-4)GlcNAc(b1-3)[Neu5Ac(a2-6)Gal(b1-4)GlcNAc(b1-3)Gal(b1-4)GlcNAc(b1-6)]GalNAc
# Outline: as §1
# [3] = molecular target: Neu5Ac(a2-6)Gal(b1-4)GlcNAc(b1-3)Gal(b1-4)GlcNAc(b1-6)[Gal(b1-3)]GalNAc
# Outline: as §1
# [4] = molecular target: Neu5Ac(a2-6)Gal(b1-4)GlcNAc(b1-3)Gal(b1-4)[Fuc(a1-3)]GlcNAc(b1-3)Gal(b1-4)[Fuc(a1-3)]GlcNAc
# Outline: as §1
# [5] = molecular target: Neu5Ac(a2-6)Gal(b1-4)GlcNAc(b1-3)GalNAc
# Outline: as §1
# [6] = molecular target: Neu5Ac(a2-6)Gal(b1-4)GlcNAc(b1-3)[Neu5Ac(a2-6)Gal(b1-4)GlcNAc(b1-6)]GalNAc
# Outline: as §1
# [7] = molecular target: Neu5Ac(a2-6)Gal(b1-4)GlcNAc(b1-6)GalNAc
# Outline: as §1
# [8] = molecular target: Neu5Ac(a2-6)Gal(b1-4)GlcNAc(b1-6)[Gal(b1-3)GlcNAc(b1-3)]Gal(b1-4)Glc
# Outline: as §1
# [9] = molecular target: Neu5Ac(a2-6)Gal(b1-4)GlcNAc(b1-6)[Gal(b1-3)]GalNAc
# Outline: as §1
# [10] = molecular target: Neu5Ac(a2-6)Gal(b1-4)GlcNAc6S
# Outline: as §1
# Neu5Ac(a2-6)GalNAc = molecular target: Neu5Ac(a2-6)GalNAc
# Outline: as §1
# [11] = molecular target: Neu5Ac(a2-6)GalNAc(b1-4)GlcNAc
# Outline: as §1
# [12] = molecular target: Neu5Ac(a2-6)GalNAc(b1-4)GlcNAc6S
# Outline: as §1
# [13] = molecular target: Neu5Ac(a2-6)GlcNAc(b1-4)GlcNAc
# Outline: as §1
# [14] = molecular target: Neu5Ac(a2-6)GlcNAc(b1-4)GlcNAc(b1-4)GlcNAc
# Outline: as §1
# Neu5Ac(a2-8)Neu5Ac = molecular target: Neu5Ac(a2-8)Neu5Ac
# Outline: as §1
# [15] = molecular target: Neu5Ac(a2-8)Neu5Ac(a2-3)Gal(b1-3)GalNAc(b1-4)[Neu5Ac(a2-3)]Gal(b1-4)Glc
# Outline: as §1
# [16] = molecular target: Neu5Ac(a2-8)Neu5Ac(a2-3)Gal(b1-3)GalNAc(b1-4)[Neu5Ac(a2-8)Neu5Ac(a2-3)]Gal(b1-4)Glc
# Outline: as §1
# [17] = molecular target: Neu5Ac(a2-8)Neu5Ac(a2-3)Gal(b1-4)Glc
# Outline: as §1
# [18] = molecular target: Neu5Ac(a2-8)Neu5Ac(a2-3)Gal(b1-4)GlcNAc
# Outline: as §1
# [19] = molecular target: Neu5Ac(a2-8)Neu5Ac(a2-3)[Gal(b1-3)GalNAc(b1-4)]Gal(b1-4)Glc
# Outline: as §1
# [20] = molecular target: Neu5Ac(a2-8)Neu5Ac(a2-3)[GalNAc(b1-4)]Gal(b1-4)Glc
# Outline: as §1
# [21] = molecular target: Neu5Ac(a2-8)Neu5Ac(a2-8)Neu5Ac
# Outline: as §1
# [22] = molecular target: Neu5Ac(a2-8)Neu5Ac(a2-8)Neu5Ac(a2-3)Gal(b1-4)Glc
# Outline: as §1
# [23] = molecular target: Neu5Ac(a2-8)Neu5Ac(a2-8)Neu5Ac(a2-3)[Gal(b1-3)GalNAc(b1-4)]Gal(b1-4)Glc
# Outline: as §1
# [24] = molecular target: Neu5Ac(a2-8)Neu5Ac(a2-8)Neu5Ac(a2-3)[GalNAc(b1-4)]Gal(b1-4)Glc
# Outline: as §1
# [25] = molecular target: Neu5Ac(a2-8)Neu5Ac(a2-8)Neu5Ac(a2-8)Neu5Ac(a2-3)[GalNAc(b1-4)]Gal(b1-4)Glc
# Outline: as §1
# [26] = molecular target: Neu5Ac(a2-8)Neu5Gc(a2-3)Gal(b1-4)GlcNAc
# Outline: as §1
# [27] = molecular target: Neu5Ac(b2-6)Gal(b1-4)GlcNAc
# Outline: as §1
# Neu5Ac(b2-6)GalNAc = molecular target: Neu5Ac(b2-6)GalNAc
# Outline: as §1
# [28] = molecular target: Neu5Ac9Ac(a2-3)Gal(b1-3)GlcNAc
# Outline: as §1
# [29] = molecular target: Neu5Ac9Ac(a2-3)Gal(b1-4)GlcNAc
# Outline: as §1
# [30] = molecular target: Neu5Ac9Ac(a2-6)Gal(b1-4)GlcNAc
# Outline: as §1
# [31] = molecular target: Neu5Gc(a2-3)Gal(b1-3)GlcNAc
# Outline: as §1
# [32] = molecular target: Neu5Gc(a2-3)Gal(b1-3)[Fuc(a1-4)]GlcNAc
# Outline: as §1
# Neu5Gc(a2-3)Gal(b1-4)Glc = molecular target: Neu5Gc(a2-3)Gal(b1-4)Glc
# Outline: as §1
# [33] = molecular target: Neu5Gc(a2-3)Gal(b1-4)GlcNAc
# Outline: as §1
# [34] = molecular target: Neu5Gc(a2-3)Gal(b1-4)GlcNAc(b1-3)Gal(b1-4)GlcNAc(b1-2)Man(a1-3)[Neu5Gc(a2-3)Gal(b1-4)GlcNAc(b1-3)Gal(b1-4)GlcNAc(b1-2)Man(a1-6)]Man(b1-4)GlcNAc(b1-4)GlcNAc
# Outline: as §1
# [35] = molecular target: Neu5Gc(a2-3)Gal(b1-4)[Fuc(a1-3)]GlcNAc
# Outline: as §1
# [36] = molecular target: Neu5Gc(a2-6)Gal(b1-4)GlcNAc
# Outline: as §1
# Neu5Gc(a2-6)GalNAc = molecular target: Neu5Gc(a2-6)GalNAc
# Outline: as §1
# [37] = molecular target: Neu5Gc(a2-8)Neu5Ac(a2-3)Gal(b1-4)GlcNAc
# Outline: as §1
# [38] = molecular target: Neu5Gc(a2-8)Neu5Gc(a2-3)Gal(b1-4)GlcNAc
# Outline: as §1
# [39] = molecular target: Neu5Gc(a2-8)Neu5Gc(a2-3)Gal(b1-4)GlcNAc(b1-3)Gal(b1-4)GlcNAc
# Outline: as §1
# [40] = molecular target: Neu5Gc(a2-8)Neu5Gc(a2-6)Gal(b1-4)GlcNAc
# Outline: as §1
# [41] = molecular target: Neu5Gc(b2-6)Gal(b1-4)GlcNAc
# Outline: as §1
binder,measurement,setting,value
B725 (Bifidobacterium sp) (protein) MNNTTRAVIATAAIGALLIPLAGCGNTTTSSGKTELTVWSWDASIDRAAKSFMKANPDITVKVSNVGSTEETYTALNNAAQAGSGLPDVTLIEYLAIPQFVHSDTLMDLSKVYNTAKLKDTFTPGTWNSVNINGGLYAMPADSGPMAYFYDKDVFDKAGISEPPTTWDEFYEDAKKIRATGSYITSDSGDAGLFNAMMWAMGGHAYKLNDDKLTINIAKDKGAQRFMDLWQKMRDEDLIDVHTKTWTDDWMKSLGDGSIASLISGAWMANNLLQGVPQATGKFRVALLPTIDGTPINGEYGGSGLAITKKIPDGKLDAAKKFVEYVTTNDEGIDARVSNGSFPATTKTLNQKDFLAKTTLRNTDGSDNEFFGGQKYNEIFSQAAKDVTGKWEFLPFEPYARSVYNDNMGSFFAGKTSFRTAADNWQKALKDYAKDQGFTVQ,glycan array binding signal (z-score),[1],-0.214
same,glycan array binding signal (z-score),[2],-0.227
same,glycan array binding signal (z-score),[3],-0.204
same,glycan array binding signal (z-score),[4],-0.214
same,glycan array binding signal (z-score),[5],-0.218
same,glycan array binding signal (z-score),[6],-0.226
same,glycan array binding signal (z-score),[7],-0.186
same,glycan array binding signal (z-score),[8],-0.194
same,glycan array binding signal (z-score),[9],-0.186
same,glycan array binding signal (z-score),[10],-0.215
same,glycan array binding signal (z-score),Neu5Ac(a2-6)GalNAc,-0.23
same,glycan array binding signal (z-score),[11],-0.234
same,glycan array binding signal (z-score),[12],-0.224
same,glycan array binding signal (z-score),[13],-0.208
same,glycan array binding signal (z-score),[14],-0.225
same,glycan array binding signal (z-score),Neu5Ac(a2-8)Neu5Ac,-0.215
same,glycan array binding signal (z-score),[15],-0.231
same,glycan array binding signal (z-score),[16],-0.2
same,glycan array binding signal (z-score),[17],-0.224
same,glycan array binding signal (z-score),[18],-0.223
same,glycan array binding signal (z-score),[19],-0.194
same,glycan array binding signal (z-score),[20],-0.22
same,glycan array binding signal (z-score),[21],-0.223
same,glycan array binding signal (z-score),[22],-0.229
same,glycan array binding signal (z-score),[23],-0.216
same,glycan array binding signal (z-score),[24],-0.225
same,glycan array binding signal (z-score),[25],-0.207
same,glycan array binding signal (z-score),[26],-0.226
same,glycan array binding signal (z-score),[27],-0.218
same,glycan array binding signal (z-score),Neu5Ac(b2-6)GalNAc,-0.24
same,glycan array binding signal (z-score),[28],-0.228
same,glycan array binding signal (z-score),[29],-0.234
same,glycan array binding signal (z-score),[30],-0.219
same,glycan array binding signal (z-score),[31],-0.214
same,glycan array binding signal (z-score),[32],-0.225
same,glycan array binding signal (z-score),Neu5Gc(a2-3)Gal(b1-4)Glc,-0.185
same,glycan array binding signal (z-score),[33],-0.217
same,glycan array binding signal (z-score),[34],-0.186
same,glycan array binding signal (z-score),[35],-0.222
same,glycan array binding signal (z-score),[36],-0.169
same,glycan array binding signal (z-score),Neu5Gc(a2-6)GalNAc,-0.217
same,glycan array binding signal (z-score),[37],-0.201
same,glycan array binding signal (z-score),[38],-0.198
same,glycan array binding signal (z-score),[39],-0.198
same,glycan array binding signal (z-score),[40],-0.219
same,glycan array binding signal (z-score),[41],-0.214
